# Assay results from the supplement of paper PMC8728848.
# The other results are listed elsewhere or left out.
# Key:
# Test in all cases: glycan array binding signal (z-score within array); higher = stronger binding
# Details in all cases: glycan notation: IUPAC condensed, linker removed
# [1] = biological target: Neu5Ac(a2-3)Gal(b1-3)[Neu5Ac(a2-6)]GalNAc
# Outline: (§1)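 The Consortium for Functional Glycomics database supplied 3228 glycan arrays, of which those lacking an available protein sequence were dropped. The binding signal, a within-array Z-score, was averaged across arrays of the same protein sequence and across linkers. Negative scores can be read as non-binding.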
# [2] = biological target: Neu5Ac(a2-3)Gal(b1-4)Glc
# Outline: as §1
# [3] = biological target: Neu5Ac(a2-3)Gal(b1-4)GlcNAc
# Outline: as §1
# [4] = biological target: Neu5Ac(a2-3)Gal(b1-4)GlcNAc(b1-2)Man(a1-3)[GlcNAc(b1-2)Man(b1-4)GlcNAc(b1-2)Man(a1-6)]Man(b1-4)GlcNAc(b1-4)GlcNAc
# Outline: as §1
# [5] = biological target: Neu5Ac(a2-3)Gal(b1-4)GlcNAc(b1-2)Man(a1-3)[Neu5Ac(a2-6)Gal(b1-4)GlcNAc(b1-2)Man(a1-6)]Man(b1-4)GlcNAc(b1-4)GlcNAc
# Outline: as §1
# [6] = biological target: Neu5Ac(a2-3)Gal(b1-4)GlcNAc(b1-3)Gal
# Outline: as §1
# [7] = biological target: Neu5Ac(a2-3)Gal(b1-4)GlcNAc(b1-3)Gal(b1-3)GlcNAc
# Outline: as §1
# [8] = biological target: Neu5Ac(a2-3)Gal(b1-4)GlcNAc(b1-3)Gal(b1-4)GlcNAc
# Outline: as §1
# [9] = biological target: Neu5Ac(a2-3)Gal(b1-4)GlcNAc(b1-3)Gal(b1-4)GlcNAc(b1-3)Gal(b1-4)GlcNAc
# Outline: as §1
# [10] = biological target: Neu5Ac(a2-3)Gal(b1-4)GlcNAc(b1-3)Gal(b1-4)[Fuc(a1-3)]GlcNAc
# Outline: as §1
# [11] = biological target: Neu5Ac(a2-3)Gal(b1-4)GlcNAc(b1-3)GalNAc
# Outline: as §1
# [12] = biological target: Neu5Ac(a2-3)Gal(b1-4)GlcNAc(b1-6)[Gal(b1-3)]GalNAc
# Outline: as §1
# [13] = biological target: Neu5Ac(a2-3)Gal(b1-4)GlcNAc(b1-6)[Neu5Ac(a2-3)Gal(b1-3)]GalNAc
# Outline: as §1
# [14] = biological target: Neu5Ac(a2-3)Gal(b1-4)GlcNAc6S
# Outline: as §1
# [15] = biological target: Neu5Ac(a2-3)Gal(b1-4)[Fuc(a1-3)]GlcNAc
# Outline: as §1
# [16] = biological target: Neu5Ac(a2-3)Gal(b1-4)[Fuc(a1-3)]GlcNAc(b1-3)Gal
# Outline: as §1
# [17] = biological target: Neu5Ac(a2-3)Gal(b1-4)[Fuc(a1-3)]GlcNAc(b1-3)Gal(b1-4)GlcNAc
# Outline: as §1
# [18] = biological target: Neu5Ac(a2-3)Gal(b1-4)[Fuc(a1-3)]GlcNAc(b1-3)Gal(b1-4)[Fuc(a1-3)]GlcNAc(b1-3)Gal(b1-4)[Fuc(a1-3)]GlcNAc
# Outline: as §1
# [19] = biological target: Neu5Ac(a2-3)Gal(b1-4)[Fuc(a1-3)]GlcNAc(b1-3)GalNAc
# Outline: as §1
# [20] = biological target: Neu5Ac(a2-3)Gal(b1-4)[Fuc(a1-3)]GlcNAc(b1-6)[Gal(b1-3)]GalNAc
# Outline: as §1
# [21] = biological target: Neu5Ac(a2-3)Gal(b1-4)[Fuc(a1-3)]GlcNAc6S
# Outline: as §1
# [22] = biological target: Neu5Ac(a2-3)Gal6S(b1-4)GlcNAc
# Outline: as §1
# [23] = biological target: Neu5Ac(a2-3)Gal6S(b1-4)[Fuc(a1-3)]GlcNAc
# Outline: as §1
# [24] = biological target: Neu5Ac(a2-3)GalNAc
# Outline: as §1
# [25] = biological target: Neu5Ac(a2-3)GalNAc(b1-4)GlcNAc
# Outline: as §1
binder,measurement,setting,value
"3FTT (Staphylococcus aureus), Q5HCZ5 (protein) MTEKEKMLAEKWYDANFDQYLINERARAKDICFELNHTRPSATNKRKELIDQLFQTTTDNVSISIPFDTDYGWNVKLGKNVYVNTNCYFMDGGQITIGDNVFIGPNCGFYTATHPLNFHHRNEGFEKAGPIHIGSNTWFGGHVAVLPGVTIGEGSVIGAGSVVTKDIPPHSLAVGNPCKVVRKIDNDLPSETLNDETIK",glycan array binding signal (z-score),[1],-0.057
same,glycan array binding signal (z-score),[2],0.028
same,glycan array binding signal (z-score),[3],-0.101
same,glycan array binding signal (z-score),[4],-0.098
same,glycan array binding signal (z-score),[5],-0.274
same,glycan array binding signal (z-score),[6],0.012
same,glycan array binding signal (z-score),[7],-0.008
same,glycan array binding signal (z-score),[8],-0.265
same,glycan array binding signal (z-score),[9],-0.095
same,glycan array binding signal (z-score),[10],-0.042
same,glycan array binding signal (z-score),[11],-0.196
same,glycan array binding signal (z-score),[12],-0.225
same,glycan array binding signal (z-score),[13],-0.217
same,glycan array binding signal (z-score),[14],0.033
same,glycan array binding signal (z-score),[15],-0.17
same,glycan array binding signal (z-score),[16],-0.115
same,glycan array binding signal (z-score),[17],0.162
same,glycan array binding signal (z-score),[18],-0.195
same,glycan array binding signal (z-score),[19],0.124
same,glycan array binding signal (z-score),[20],0.485
same,glycan array binding signal (z-score),[21],0.121
same,glycan array binding signal (z-score),[22],0.037
same,glycan array binding signal (z-score),[23],0.015
same,glycan array binding signal (z-score),[24],-0.026
same,glycan array binding signal (z-score),[25],0.165
